Results on 95 molecules are retold here after PubChem BioAssay AID1159614 (National Center for Advancing Translational Sciences (NCATS), 2016).

Screen size: about 45,000 compounds; about 65 (0.1%) were called active. Calls follow the shape of the dose curve; as a rule, active = well fitted activation curve with a large enough effect; inconclusive = small, poorly fitted or top-dose-only effect; inactive = no such curve, though single readings can be large or run the other way. The list shows a part of the results.

UniProt P54803, sequence (P54803 whole entry, looked up): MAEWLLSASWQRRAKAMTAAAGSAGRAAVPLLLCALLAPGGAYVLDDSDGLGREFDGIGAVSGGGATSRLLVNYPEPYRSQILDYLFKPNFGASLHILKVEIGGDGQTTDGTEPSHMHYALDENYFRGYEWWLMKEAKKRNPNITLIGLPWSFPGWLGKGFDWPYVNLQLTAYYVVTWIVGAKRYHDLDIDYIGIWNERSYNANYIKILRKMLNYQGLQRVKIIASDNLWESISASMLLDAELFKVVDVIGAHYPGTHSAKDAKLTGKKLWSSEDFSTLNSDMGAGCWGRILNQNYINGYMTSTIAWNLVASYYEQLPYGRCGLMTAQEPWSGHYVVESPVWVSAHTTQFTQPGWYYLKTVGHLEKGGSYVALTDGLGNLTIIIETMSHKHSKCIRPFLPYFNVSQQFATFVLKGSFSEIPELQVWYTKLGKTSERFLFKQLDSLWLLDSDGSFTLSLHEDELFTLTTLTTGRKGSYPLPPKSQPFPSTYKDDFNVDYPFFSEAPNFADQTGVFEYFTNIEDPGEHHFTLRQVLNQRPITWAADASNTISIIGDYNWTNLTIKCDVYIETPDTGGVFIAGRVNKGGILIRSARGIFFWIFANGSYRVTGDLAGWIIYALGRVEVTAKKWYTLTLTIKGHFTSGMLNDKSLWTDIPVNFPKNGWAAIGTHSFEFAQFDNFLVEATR

The experiment has as its target Galactocerebrosidase (Homo sapiens) (UniProt P54803). Kind of experiment: A Novel Cell-Based Assay to Identify Small Molecules for B -Galactocerebrosidase. Also: 0% is about no effect; nearly all actives have a fitted effect of over 65% in size. The conditions noted are these: 145M-Twi-hGALC-G270D cells (Twitcher mouse brain line with human GALC G270D), HMU-beta-Gal fluorescence, 48 h; series mostly up to 57.5 µM; activation: at the top concentration. The essentials:
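Brain-derived Twitcher mouse 145M-Twi cells stably expressing human GALC-G270D or wild-type GALC, treated live, then residual GALC activity read by fluorescence of HMU-b-Gal substrate (0.1 mM final) in citrate-phosphate buffer pH 5.2 with sodium taurocholate. Signal increase indicates enhancement.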
On to `COc1cc(C(CC(=O)Nc2ccc(C)c(F)c2)N2Cc3ccccc3C2=O)cc(OC)c1OC` (stereo not given), for which the “activation” value was inactive: -8.42%.

Consider `CCN(CC)c1ncnc2c1cnn2-c1cc(Cl)ccc1C`, for which the “activation” value was inactive: -17.5%. With `O=C1OCC2=C1C(c1cccc(Cl)c1)CC(=O)N2c1ccc(C(F)(F)F)cc1` (stereo not given), the “activation” value was inactive: -3.47%. As to `CCOc1ccccc1NC(=O)C1CCN(S(=O)(=O)c2c(C)noc2/C=C/c2ccco2)CC1`, the “activation” value is inactive: -13.9%. As to `CCOC(=O)c1c(C)[nH]c(C)c1S(=O)(=O)N(C)CC(=O)Nc1ccc(OC)cc1`, the “activation” value is inactive: -9.36%. With `O=C1c2ccccc2C(=O)C1c1ccc(Br)cc1`, the “activation” value was inactive: 1.67%. Regarding `Cc1cccc(Cn2cc(S(=O)(=O)c3cccc(Cl)c3)c(=O)c3cc(F)c(N4CCOCC4)cc32)c1`, the “activation” value is inactive: -11.1%. As to `Cn1c(=O)c2nc(SCC(=O)Nc3ccc(OC(F)(F)F)cc3)n(C)c2n(C)c1=O`, the “activation” value is inactive: -5.45%.

Turning to `COc1ccc(CC(=O)Nc2c(C(=O)N3CCN(c4ccccc4)CC3)oc3ccccc23)cc1OC`, the “activation” value is inactive: -23%. Consider `CC1CCCN(CCCNC(=O)c2cc(Sc3ccc(F)cc3)nc3ccccc23)C1` (stereo not given), for which the “activation” value is inactive: -4.69%. In the case of `COc1cc(NC(=O)Cn2nc(C(F)(F)F)c3c2CCC3)cc(OC)c1OC` it was inactive: 2.59%; in that of `COc1cc(OC)cc(-c2cc3nc(C)c(CCC(=O)NCCc4cccc(C)c4)c(C)n3n2)c1`, inactive: -8.31%.

Consider `O=C(CCn1c(=O)c2ccccc2n(CC(=O)Nc2cccc(F)c2)c1=O)NCCc1ccccc1`, for which the “activation” value was inactive: -7.59%. For `COc1ccc(OC)c(CNC(=O)c2ccc(N3Cc4ccccc4Oc4ncccc43)s2)c1`, the “activation” value is inactive: -31%.

On to `COc1cccc(CNC(=O)c2cc3c(-c4ccccc4F)nn(C)c3s2)c1`, for which the “activation” value was inactive: -12.5%. Regarding `CCOC(=O)c1cccc(NC(=O)CCSCCc2ccccn2)c1`, the “activation” value is inactive: -13.6%. On to `O=C(CCCn1c2ccccc2c(=O)c2ccccc21)Nc1cccc(Cl)c1`, for which the “activation” value is inactive: -5.06%. In the case of `COc1cc(C2Nc3ccccc3-c3cc(C)nn32)ccc1O` (stereo not given) it was inactive: -18.9%; in that of `Cc1ccc(NC(=O)Cn2nc(-c3ccccc3)nc(Cc3ccc(Cl)cc3)c2=O)cc1`, inactive: -12.3%; in that of `Cc1noc(-c2ccc(-c3noc(-c4ccc(F)cc4)n3)cc2)n1`, inactive: -14.7%.

With `COCCn1c(SCC(=O)Nc2cc(Cl)ccc2OC)nc2c([nH]c3ccccc32)c1=O`, the “activation” value is inactive: -5.82%. For `O=C(NCCc1ccc(Cl)cc1)c1c2c(nc3ccccc13)C(=O)N(C1CCCCC1)C2`, the “activation” value is inactive: -4.55%. The same measure for `Cc1csc2nc(COC(=O)c3ccccc3NC(=O)c3cccc(Br)c3)cc(=O)n12`: inactive: -1.49%. On to `O=S(=O)(c1ccc(Br)s1)N1CCN(c2cccc(C(F)(F)F)c2)CC1`, for which the “activation” value was inactive: -12.4%.

As for `CCCCCn1c(NCc2ccc(OC)cc2)nc2ccccc21`, the “activation” value is inactive: 9.49%. Turning to `Cc1ccc(C(=O)c2cn(CC(=O)Nc3ccc(C(C)C)cc3)c3nc(C)ccc3c2=O)cc1`, the “activation” value was inactive: -18.3%.

In the case of `Cc1ccc(NC(=O)CSc2nnc(-c3ccc([N+](=O)[O-])cc3)o2)c(C)c1`, the “activation” value is inactive: -17.3%. As for `CCS(=O)(=O)N1CCCC(C(=O)NCCOC)C1` (stereo not given), the “activation” value is inactive: -8.56%. On to `CCOc1ccc(C(=O)Cn2c(=O)n3nc(CCn4nc(C)cc4C)nc3c3cc(OC)c(OC)cc32)cc1`, for which the “activation” value is inactive: 0.495%.

As to `Cc1cccc(N(C)c2nc3ccccc3c3nnc(C)n23)c1`, the “activation” value is inactive: -13.8%. As to `COC(=O)Cn1c(=O)c2cccn2c2ccc(F)cc21`, the “activation” value was inactive: -7.59%. With `COc1cc(NC(=O)c2cc(C3CC3)nc3c2c(C)nn3-c2ccccc2)cc(OC)c1`, the “activation” value was inactive: -14.3%. Regarding `Cc1ccccc1N1CCN(S(=O)(=O)c2nnc(NC(=O)c3ccc(C(C)C)cc3)s2)CC1`, the “activation” value was inactive: -14%. The same measure for `Cc1cc(C)cc(NC(=O)Cn2c(-c3cncs3)nc3ccccc32)c1`: inactive: -8.82%; for `Cc1ccccc1NC(=O)CC(NCc1cccnc1)C(=O)O` (stereo not given): inactive: -15.7%; for `CCOC(=O)c1ccc(NC(=O)c2cnc3c(-c4ccc(F)cc4)c(C)nn3c2C)cc1`: inactive: -6.22%. Consider `COc1ccc(-n2nc(C(=O)Nc3ccccn3)c3c4ccccc4n(C)c3c2=O)cc1`, for which the “activation” value is inactive: -0.471%. In the case of `COc1ccccc1OC(C)C(=O)Nc1cccc(-c2nc3ccccc3s2)c1` (stereo not given), the “activation” value is inactive: -31.2%. For the molecule `Cc1cc(C)n(-c2nc3ccccc3nc2Nc2ccc(N(C)C)cc2)n1`, the “activation” value was inactive: -8.08%. The same measure for `CCOc1ccc(-c2nc3c(c(SCC(=O)Nc4ccccc4C)n2)Cc2ccccc2O3)cc1`: inactive: -10.4%; for `Cc1ccccc1Cn1nnc2c(=O)[nH]c(C3CCN(C(=O)c4ccc(F)cc4)CC3)nc21`: inactive: -2.84%; for `Cc1cc(C)c(Cn2c3ccccc3c3cnn(CC(=O)NCc4cccs4)c(=O)c32)c(C)c1`: inactive: -8.77%. As to `CN(C)c1ccc(CNC(=O)c2ccc(Cn3c(SCc4ccccc4)nc4cccnc43)cc2)cc1`, the “activation” value was inactive: -15.6%.

Take `Cc1ccccc1CNC(=O)c1ccc2c(c1)c(C)c(C)n2C`: the “activation” value was inactive: 3.74%. On to `CCc1ccc(CNC(=O)c2cnc3sc(N4CCCC4)nn3c2=O)cc1`, for which the “activation” value was inactive: -4.58%. In the case of `Cc1ccc(Cl)cc1NC(=O)C1CCN(c2nnc(C)c3c(C)n(-c4ccccc4)nc23)CC1`, the “activation” value is inactive: -8.78%.

`CCc1cccc(NC(=O)COC(=O)c2cn(CC)c3nc(C)ccc3c2=O)c1`: the “activation” value is inactive: 1.95%. Regarding `CCCc1cc(=O)[nH]c(SCC(=O)N2CCN(c3ccccc3)CC2)n1`, the “activation” value is inactive: 1.61%.

Regarding `COc1ccc(CNC(=O)CSCc2nc(-c3ccccc3C)oc2C)cc1`, the “activation” value was inactive: -13.5%. The same measure for `COc1ccc(CNC(=O)c2ccc(-c3nc(CSc4ccccc4)c(C)o3)cc2)cc1OC`: inactive: -13.1%; for `CCc1ccc(-n2c(=O)c3c4c(sc3n(CC(=O)c3ccc(F)cc3)c2=O)CCC4)cc1`: inactive: -30.3%.

Take `CCC(C)NC(=O)CCCN1C(=O)CCn2nc(-c3cccn3C)cc21` (stereo not given): the “activation” value was inactive: -16.6%.

Regarding `COc1ccc(-c2ccc3c(N)c(C(=O)c4ccc(OC)c(OC)c4)sc3n2)cc1`, the “activation” value was inactive: -17.7%. With `CC(C)c1nn2c(=O)cc(COC(=O)c3ccc(NC(=O)COc4ccccc4)cc3)nc2s1`, the “activation” value was inactive: 3.35%. On to `COc1ccccc1C(=O)Nc1ccccc1OCc1cc(=O)n2c(C)csc2n1`, for which the “activation” value is inactive: -17.3%. `CC(=O)Nc1nonc1-c1nnc(SCC(=O)Nc2ccc(C)cc2)n1-c1ccccc1`: the “activation” value was inactive: -14.2%.

For `COC(=O)c1ccccc1NC(=O)c1cc(-c2ccccc2O)no1`, the “activation” value was inactive: -0.0182%. As to `CCCN1CCN(c2ncnc3sc(C(=O)Nc4ccc(C(C)C)cc4)c(C)c23)CC1`, the “activation” value is inactive: -5.07%. Take `O=C(CS(=O)(=O)c1cccc2nsnc12)N1CCN(c2cccc(Cl)c2)CC1`: the “activation” value was inactive: -18.6%. For `COc1ccc(-c2cc(-c3ccccc3)c(C#N)c(SCC(O)CS(=O)(=O)Cc3ccc(Cl)cc3)n2)cc1` (stereo not given), the “activation” value was inactive: -21%. The same measure for `CCOC(=O)c1sc2cccc(F)c2c1S(=O)(=O)NCc1ccccc1Cl`: inactive: -22.2%; for `COc1ccc(NC(=O)CN2C(=O)CCn3nc(-c4cccn4C)cc32)cc1Cl`: inactive: -18.1%; for `O=S(=O)(c1ccc(-c2cc(C(F)(F)F)on2)s1)N1CCN(c2ccccc2F)CC1`: inactive: -23%. In the case of `Cc1cccc(NC(=O)Cn2nnc(-c3nc(-c4ccncc4)no3)c2N)c1`, the “activation” value is inactive: -10.1%.

For `COc1ccc(CN2CCc3c(c(=O)n4ncc(C(=O)N5CCN(c6ccccc6OC)CC5)c4n3C)C2)cc1`, the “activation” value was inactive: -26.5%. Take `Cc1ccc(NC(=O)CN2C(=O)c3ccccc3Sc3ccc(C(=O)N4CCOCC4)cc32)cc1F`: the “activation” value was inactive: 5.94%. With `COc1cccc(N2CCN(C(=O)c3ccc(C)c(NC(=O)c4nsc5ccccc45)c3)CC2)c1`, the “activation” value is inactive: -14.8%. For `COc1cc(SC)ccc1C(=O)Nc1ccc(S(=O)(=O)Nc2nccc(C)n2)cc1`, the “activation” value was inactive: -20.8%. As for `Cc1ccc(C(c2sc3nc(-c4ccco4)nn3c2O)N2CCCC2)cc1` (stereo not given), the “activation” value is inactive: -2.95%. With `Cc1ccc(N(CC(=O)NCCc2ccc(Cl)cc2)S(=O)(=O)c2c(C)noc2C)cc1`, the “activation” value is inactive: -2.4%. As for `COc1ccc(NC(=O)CN2C(=O)CCn3nc(-c4cccn4C)cc32)cc1`, the “activation” value is inactive: -12.2%. For `CCOC(=O)C1CCN(c2cc3c(cc2NC(=O)c2ccc(Cl)cc2)n(C)c(=O)n3C)CC1`, the “activation” value was inactive: -14.1%. For the molecule `CCOc1ccc(Nc2oc(-c3ccc(COc4ccc(OC)cc4)o3)nc2C#N)cc1`, the “activation” value was inactive: -15.1%. Turning to `Cc1cc(Nc2ccccc2F)n2nc(-c3ccccc3)nc2n1`, the “activation” value is inactive: -13%.

For `COc1ccc(S(=O)(=O)NCc2ccc3c(c2)CCN3C(=O)c2ccccc2)cc1OC`, the “activation” value was inactive: -4.87%. The same measure for `COC(=O)c1ccc(Cl)cc1NC(=O)N1CC2CCCN2c2ccccc21` (stereo not given): inactive: -10.6%; for `Cc1ccc(NC(=O)C(=O)NCC(c2cccnc2)N2CCN(Cc3ccccc3)CC2)cc1C` (stereo not given): inactive: -38.2%. On to `COc1ccccc1OCCn1c(NC(=O)c2ccccc2Cl)nc2ccccc21`, for which the “activation” value is inactive: -18.5%. Consider `Cc1cc(C)c(Nc2nc3ccccc3n3c(C)nnc23)c(C)c1`, for which the “activation” value was inactive: -18.7%. For `COc1ccc(NC(=O)Cn2cc(S(=O)(=O)N3CCN(c4ccccc4F)CC3)c3ccccc3c2=O)cc1Cl`, the “activation” value was inactive: -18.2%. `CCN(CC)CCCNc1oc(/C=C/c2ccc(OC)c(OC)c2)nc1C#N`: the “activation” value is inactive: -8.78%. In the case of `CCOC(=O)C1=C(CN2CCN(c3ccc(OC)cc3)CC2)NC(=O)NC1c1ccc(OC)cc1` (stereo not given) it was inactive: -16%; in that of `Cc1ccc(Nc2nc3nonc3nc2Nc2cccc(C(F)(F)F)c2)cc1Cl`, inactive: -3.7%; in that of `CNc1c(NC(=O)c2ccc(OC)c(OC)c2)c(=O)oc2ccccc12`, inactive: -22.5%. As for `CCOc1ccc(-c2cc(C(=O)N3CCN(c4cc(Cl)ccc4C)CC3)c3ccccc3n2)cc1`, the “activation” value is inactive: -13.5%. `Cc1ccc(NC(=O)CSc2nnc3scc(-c4ccc(Cl)cc4)n23)cc1`: the “activation” value is inactive: -5.46%. As for `CCN(CC)C(=O)Cn1c(=O)cc(C)c2c(C)nn(-c3cccc(Cl)c3C)c21`, the “activation” value was inactive: -23.7%.

For `COc1cccc(CNC(=O)C2CCC(CNS(=O)(=O)c3ccc4c(c3)CCCC(=O)N4)CC2)c1` (stereo not given), the “activation” value is inactive: -7.28%. As for `Cc1cc(C)cc(NC(=O)NCCc2c(C)nn(C)c2C)c1`, the “activation” value was inactive: -10.7%.

As to `Cc1ccc(NC(=O)C(Cc2c[nH]c3ccccc23)NC(=O)OC(C)(C)C)c(C)c1` (stereo not given), the “activation” value was inactive: -11.6%. For `CCc1ccc(C(=O)c2cn(CC(=O)Nc3ccc4c(c3)OCO4)c3ccc(CC)cc3c2=O)cc1`, the “activation” value was inactive: -8.07%. For `Cc1cc2c(cc1S(=O)(=O)CCC(=O)N1CCC(C)CC1)OCC(=O)N2`, the “activation” value is inactive: -13.3%.

For the molecule `Cc1ccc(C)c(CSc2nnc3[nH]c(=O)cc(C)n23)c1`, the “activation” value is inactive: -6.56%. Regarding `Cc1ccc(S(=O)(=O)n2nc(C)c(S(=O)(=O)N3CCCCCC3)c2C)cc1`, the “activation” value was inactive: 11.2%. `CC(C)c1nn2c(=O)cc(COC(=O)c3cccc(NC(=O)COc4ccc(F)cc4)c3)nc2s1`: the “activation” value was inactive: -1.91%.
